In the supplement of paper PMC10126150:
Values marked as one replicate rest on one cluster of the flow cell; about a third of the high ones do not repeat.

System: ATP
Assay: switch fluorescence ratio, 500 uM ATP over buffer (Cy3 cluster intensity, sum of 5 cycles each) (fold (ratio)); higher = stronger signal-on switching upon ATP binding; sequences stand for … in TCGTCGGCAGCGTCAGATGTGTATAAGAGACAGTTTTTTTTTTTTTTTTTTTTTTTTT…TC
Details: aptamer strand: ATP DNA aptamer (quencher-CACCTGGGGGAGTATTGCGGAGGAAGG + anchor), 100 nM annealed; ATP concentration: 500 uM; one replicate
How it was run: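 For every switch-domain sequence, the fluorescence ratio is the mean of per-cluster values, each being summed target-cycle Cy3 intensity over summed buffer-cycle Cy3 intensity. Clusters outside 100-1000 RFU were excluded. On a modified Illumina MiSeq flow-cell, the Cy3-labelled switching-strand clusters were annealed to 100 nM quencher-labelled ATP aptamer, imaged in selection buffer and then after 15 min with 500 uM ATP at 22 °C. Five such cycles were run, with NaOH stripping and re-annealing between them.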
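Note: ATP exposure 15 min at 22 °C before imaging.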

Row | Sequence | switch fluorescence ratio
1 | TTGATGGTGT | 1.02
2 | TAGACTACCA | 1.02
3 | GGGAGGCCGA | 1.04
4 | ACTATCGCGA | 1.12
5 | GCACCCTTGG | 1.02
6 | TTCTTCCAAG | 1.34
7 | CGGCTGTGAC | 1.05
8 | GCGCACTTCC | 1.9
9 | AGTTTAGTGT | 0.987
10 | AATAGCTT | 0.976
11 | TCCAACAGTT | 1.02
12 | GGTGCGGTGA | 1
13 | CCCCTATGCA | 1.14
14 | GTCGCTGTCT | 1.03
15 | TTAACAGGCG | 0.96
16 | TTATGGAGTG | 0.944
17 | AGTTATGTCC | 0.996
18 | GTGGTGGTTA | 0.954
19 | TATTTGGCGG | 0.966
20 | CGACGGGCAT | 1.06
21 | CAAGGTTTAG | 0.946
22 | GCGTGACTGG | 1.03
23 | GAGTCGAACC | 1.41
24 | CTCTTTACTT | 0.989
25 | TTAGTATGCC | 0.994
26 | ATGAGTAGCC | 1.02

Row | Sequence | switch fluorescence ratio
27 | GCTCTACTG | 0.993
28 | GTCGAGCCGA | 1.05
29 | CATCTTGAGA | 0.994
30 | AGAGATAC | 1.05
31 | CTGTGCAGTG | 1.03
32 | CGGACAGGTT | 1.04
33 | TGCGATAGA | 1.07
34 | GCGACTGATA | 1.03
35 | GATCGTAGTT | 0.97
36 | CCCGGTCTTG | 0.984
37 | TCTCCGTTAA | 5.33
38 | AACTTCTCGG | 1.06
39 | ACTGGTGGGT | 1.05
40 | TATGGACTGG | 1.01
41 | CAGTCCGAAA | 1.69
42 | TGGCTGATGC | 0.971
43 | TTACGTCAGG | 1.05
44 | ACGGTTAGGA | 0.944
45 | TGCTTGTGGC | 1.01
46 | GACGTTTAGA | 1.03
47 | AAACATCTGG | 0.98
48 | AATCGTGGTC | 1.04
49 | ACCGTGGAGC | 1.06
50 | CCACAGACTT | 1.15
51 | GGACGTGGCC | 1.01
52 | AAGTCCTA | 0.964

Row | Sequence | switch fluorescence ratio
53 | TGCCGCGGGA | 1.05
54 | CCGCATCCTG | 2.55
55 | GTGTGGAATT | 0.981
56 | CTAATACTGA | 0.998
57 | GTCATATGTT | 1.03
58 | AGGCGTGAGT | 1.02
59 | CAAGAATCGC | 0.974
60 | GTTTTAATCA | 1.03
61 | TGCCACAGAC | 1.33
62 | TTGTGTGTGC | 1.05
63 | CCGCTTGTGA | 1.15
64 | TTATAGCAAA | 1.05
65 | GTCCCAGGG | 1.31
66 | GTGTGCGAAA | 0.982
67 | CTAAAGGTAC | 1.05
68 | TAAATCCCCT | 0.999
69 | TATAGAATCA | 0.985
70 | TTGACGTACA | 1.68
71 | GATTTTGGA | 0.978
72 | CTTAGATACT | 1.02
73 | CGAGACCAAT | 1.09
74 | ACCTAGGTA | 1.04
75 | CCGCCATGCA | 2.72
76 | ATCCGGTCTT | 1.02
77 | TGACCGGTCA | 0.979
78 | ACTGGTTACG | 1.03

Row | Sequence | switch fluorescence ratio
79 | GATGAGGTGA | 1.02
80 | GTGGGGACTG | 0.928
81 | ATAAAGAAT | 0.987
82 | ACTAAGTGTG | 0.983
83 | GATTGCTACG | 1.03
84 | TTATCCTATG | 1
85 | GAAGGATAAC | 1.06
86 | GTTATAAAAG | 0.982
87 | ATCCTACAAT | 1.06
88 | GAATCAGATC | 0.999
89 | TCGAATGCGT | 1
90 | TACCTTCTAA | 1.13
91 | AAAACACCGG | 0.992
92 | GACCTATGGT | 1.02
93 | GGTCGCCGTT | 1.02
94 | AACGTCGCCT | 1.03
95 | TTCGAAGTGT | 1
96 | ACTGGTAGTT | 1.01
97 | TTCCCCAAAC | 1.04
98 | CAGTGGTTTT | 0.996
99 | TGGTGCTGCT | 0.993
100 | GCGGGTGCGC | 1
101 | GTGGTGTAAA | 0.97
102 | CACGTCGCAA | 1.24
103 | GCTGCGATAA | 2.52
104 | CTCATTGGAA | 1.04

Row | Sequence | switch fluorescence ratio
105 | ATGGTCAGAC | 0.972
106 | TATGCCAGA | 0.97
107 | TGGCTTGAGG | 0.985
108 | GCATGTTTCC | 1.07
109 | TAACTGGTTT | 0.992
110 | CATCGATCAG | 0.995
111 | CGATACGAAT | 0.985
112 | ACTGAGTGTC | 1.02
113 | TTCAAAACGG | 1.04
114 | TGATAGTTTC | 0.993
115 | TTGGTGGCTC | 1.04
116 | ATAAGGAGCA | 1.03
117 | TGTAGTACGG | 0.956
118 | TCAGGGACG | 0.967
119 | GGTAGAAGT | 0.977
120 | AGCGACTGTG | 0.98
121 | AGGTAGACGT | 1.02
122 | CTTAACGGGG | 1.04
123 | GCCCATCTGA | 0.967
124 | CCGATAAGAT | 1.61
125 | CGCTTCCCGG | 1.33
126 | AGTACCGATT | 1.01
127 | ATCAGTATAC | 1.09
128 | CCTACGAAAG | 2.88
129 | TGGTGGTAGA | 0.989
130 | TCTGGTTAGA | 0.992

Row | Sequence | switch fluorescence ratio
131 | GGATACAAGC | 0.964
132 | CAAGCACGGT | 1.25
133 | CGTTAAGGGC | 1.07
134 | GATACAGGGG | 1.18
135 | TGTGGATCCG | 0.994
136 | TGTCCTTGTC | 0.986
137 | CCTGTACTTA | 1.04
138 | CCAACAGCTC | 1.44
139 | ATTGCAGAGT | 0.953
140 | CGGTATGTGT | 1.07
141 | TATTAAAGGC | 1.07
142 | AAGTCCGTT | 1.08
143 | AGGACAGCTC | 1.03
144 | ATTTGTAAG | 1.01
145 | CGGCCAGAGG | 0.989
146 | AATTATGTT | 0.989
147 | TCGGTTCGAC | 1.03
148 | GAAGTGTGAC | 1.04
149 | GGTATTTCCC | 1.16
150 | GTTTGTGGCT | 0.973
151 | TTCGAGTGTG | 1.01
152 | GCGGCTATCA | 1.02
153 | AACCGCTCGG | 0.971
